Test results from the supplement of paper PMC4604168 (melanoma cell lines).
This is one part of the list. Many values rest on one well or one pass, so single values are uncertain.

What follows are compounds tested on WM451Lu (assay: cell count relative to DMSO control; melanoma cells; higher = more viable cells). Settings: library dose: low library concentration; 72 h.
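Further: cell number obtained by counting DAPI-stained nuclei in high-throughput microscope images with image analysis software, screen run in 1,536-well plates.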

| SMILES | cell count |
| --- | --- |
| CC(=O)O[C@@]12CO[C@@H]1C[C@H](O)[C@@]1(C)C(=O)[C@H](O)C3=C(C)[C@@H](OC(=O)[C@H](O)[C@@H](NC(=O)OC(C)(C)C)c4ccccc4)C[C@@](O)([C@@H](OC(=O)c4ccccc4)[C@H]21)C3(C)C [Docetaxel] + Nc1ccn([C@@H]2O[C@H](CO)[C@@H](O)C2(F)F)c(=O)n1 [gemcitabine] (first compound 0.0001 µM, partner dose 0.0004 µM) | 49.9% |
| Nc1ncn([C@H]2C[C@H](O)[C@@H](CO)O2)c(=O)n1 [decitabine] + O=C(O)C(=O)Nc1sc2c(c1C(=O)O)CCNC2 [TCS401] (first compound 0.1 µM, partner dose 1.66667 µM) | 99.4% |
| CO[C@H]1C[C@@H]2CC[C@@H](C)[C@@](O)(O2)C(=O)C(=O)N2CCCC[C@H]2C(=O)O[C@H]([C@H](C)C[C@@H]2CC[C@@H](OCCO)[C@H](OC)C2)CC(=O)[C@H](C)/C=C(\C)[C@@H](O)[C@@H](OC)C(=O)[C@H](C)C[C@H](C)/C=C/C=C/C=C/1C [everolimus] + CC(=O)c1c(C)c2cnc(Nc3ccc(N4CCNCC4)cn3)nc2n(C2CCCC2)c1=O [palbociclib] (first compound 0.02 µM, partner dose 0.04 µM) | 54.9% |
| CC(=O)O[C@@]12CO[C@@H]1C[C@H](O)[C@@]1(C)C(=O)[C@H](O)C3=C(C)[C@@H](OC(=O)[C@H](O)[C@@H](NC(=O)OC(C)(C)C)c4ccccc4)C[C@@](O)([C@@H](OC(=O)c4ccccc4)[C@H]21)C3(C)C [Docetaxel] + Oc1nc(-c2ccc(C(F)(F)F)cc2)nc2c1CSCC2 [XAV939] (first compound 0.0001 µM, partner dose 2 µM) | 64.7% |
| Nc1ncn([C@H]2C[C@H](O)[C@@H](CO)O2)c(=O)n1 [decitabine] + CO[C@@H]1[C@H](N(C)C(=O)c2ccccc2)C[C@H]2O[C@]1(C)n1c3ccccc3c3c4c(c5c6ccccc6n2c5c31)C(=O)NC4 [Midostaurin] (first compound 0.1 µM, partner dose 0.08 µM) | 80.2% |
| CO[C@H]1C[C@@H]2CC[C@@H](C)[C@@](O)(O2)C(=O)C(=O)N2CCCC[C@H]2C(=O)O[C@H]([C@H](C)C[C@@H]2CC[C@@H](OCCO)[C@H](OC)C2)CC(=O)[C@H](C)/C=C(\C)[C@@H](O)[C@@H](OC)C(=O)[C@H](C)C[C@H](C)/C=C/C=C/C=C/1C [everolimus] + COc1ccc(Cl)c(Nc2nc3ccccc3nc2NS(=O)(=O)c2cccc(NC(=O)C(C)(C)N)c2)c1 [XL147] (first compound 0.02 µM, partner dose 0.8 µM) | 94.2% |
| Nc1ncn([C@H]2C[C@H](O)[C@@H](CO)O2)c(=O)n1 [decitabine] + Cc1ccc(NC(=O)c2cccc(N(C)C)c2)cc1NC(=O)c1ccc(O)cc1 [ZM336372] (first compound 0.1 µM, partner dose 2 µM) | 96.4% |
| CC(=O)c1c(C)c2cnc(Nc3ccc(N4CCNCC4)cn3)nc2n(C2CCCC2)c1=O [palbociclib] + O=C(CCCCCCC(=O)Nc1ccccc1)NO [vorinostat] (first compound 0.04 µM, partner dose 0.08 µM) | 83.2% |
| CC(=O)c1c(C)c2cnc(Nc3ccc(N4CCNCC4)cn3)nc2n(C2CCCC2)c1=O [palbociclib] + O=C(O)c1ccc(-c2c[nH]c3ncc(-c4ccccc4)cc23)cc1C1CCCC1 [GSK650394] (first compound 0.04 µM, partner dose 0.16 µM) | 66.6% |
| Nc1ncn([C@H]2C[C@H](O)[C@@H](CO)O2)c(=O)n1 [decitabine] + CN(C)S(=O)(=O)c1ccc2c(c1)/C(=C/c1cc3c([nH]1)CCCC3)C(=O)N2 [SU6656] (first compound 0.1 µM, partner dose 0.4 µM) | 92.2% |
| Nc1nc(F)nc2c1ncn2[C@@H]1O[C@H](CO)[C@@H](O)[C@@H]1O [fludarabine] + N#Cc1c(O)c2c(-c3ccc(-c4ccccc4O)cc3)csc2[nH]c1=O [A769662] (first compound 0.2 µM, partner dose 2 µM) | 45.8% |
| CC(=O)c1c(C)c2cnc(Nc3ccc(N4CCNCC4)cn3)nc2n(C2CCCC2)c1=O [palbociclib] + COc1ccc2c(c1)CCC1C2CCC2(C)C(NCCCCCCN3C(=O)C=CC3=O)CCC12 [U73122] (first compound 0.04 µM, partner dose 0.4 µM) | 98.2% |
| Nc1ccn([C@@H]2O[C@H](CO)[C@@H](O)C2(F)F)c(=O)n1 [gemcitabine] + C#Cc1cccc(Nc2ncnc3cc(OCCOC)c(OCCOC)cc23)c1 [erlotinib] (first compound 0.0004 µM, partner dose 0.8 µM) | 99.5% |
| Nc1nc(F)nc2c1ncn2[C@@H]1O[C@H](CO)[C@@H](O)[C@@H]1O [fludarabine] + COc1ccc(COc2ccc(Cc3cnc(N)nc3N)cc2OC)cc1 [GW2580] (first compound 0.2 µM, partner dose 1 µM) | 56.4% |
